Measurements: PubChem BioAssay (NCI)
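Method: 48-hour compound exposure of cells in 96-well plates, five concentrations, linear interpolation of endpoints. GI50 = concentration required for 50% inhibition of growth. The concentration for full growth arrest is given as TGI.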

Tested on: NCI-H322M lung
Test: NCI tumour cell line growth inhibition, 48 h

SMILES | GI50 [µM] | TGI [µM]
Cc1ccc2c(n1)C(=O)C(Cl)=C(Nc1ccc(C(F)(F)F)cc1)C2=O | > 100 | > 100
CCc1cccc2c3c(sc12)C(c1ccc(Cl)cc1)C(C#N)=C(/N=C/c1ccc(Cl)cc1)O3 (centres undefined) | 2.47 | > 50
